Data published in US20240294636A1 (YALE UNIVERSITY, published 2024).

What was measured:
Netrin-1 = biological target: T1, Netrin-1 (mouse, UniProt O09118 25-604); assay: co-immunoprecipitation with Unc5B (IP: Unc5B (R&D)) from brain lysates of antibody-injected mice, western blot
T1 construct: also called recombinant mouse Netrin-1

Robo4 = biological target: T2, Robo4 (mouse, UniProt Q8C310 28-1012, limits assumed); assay: as above
T2 sequence (looked up): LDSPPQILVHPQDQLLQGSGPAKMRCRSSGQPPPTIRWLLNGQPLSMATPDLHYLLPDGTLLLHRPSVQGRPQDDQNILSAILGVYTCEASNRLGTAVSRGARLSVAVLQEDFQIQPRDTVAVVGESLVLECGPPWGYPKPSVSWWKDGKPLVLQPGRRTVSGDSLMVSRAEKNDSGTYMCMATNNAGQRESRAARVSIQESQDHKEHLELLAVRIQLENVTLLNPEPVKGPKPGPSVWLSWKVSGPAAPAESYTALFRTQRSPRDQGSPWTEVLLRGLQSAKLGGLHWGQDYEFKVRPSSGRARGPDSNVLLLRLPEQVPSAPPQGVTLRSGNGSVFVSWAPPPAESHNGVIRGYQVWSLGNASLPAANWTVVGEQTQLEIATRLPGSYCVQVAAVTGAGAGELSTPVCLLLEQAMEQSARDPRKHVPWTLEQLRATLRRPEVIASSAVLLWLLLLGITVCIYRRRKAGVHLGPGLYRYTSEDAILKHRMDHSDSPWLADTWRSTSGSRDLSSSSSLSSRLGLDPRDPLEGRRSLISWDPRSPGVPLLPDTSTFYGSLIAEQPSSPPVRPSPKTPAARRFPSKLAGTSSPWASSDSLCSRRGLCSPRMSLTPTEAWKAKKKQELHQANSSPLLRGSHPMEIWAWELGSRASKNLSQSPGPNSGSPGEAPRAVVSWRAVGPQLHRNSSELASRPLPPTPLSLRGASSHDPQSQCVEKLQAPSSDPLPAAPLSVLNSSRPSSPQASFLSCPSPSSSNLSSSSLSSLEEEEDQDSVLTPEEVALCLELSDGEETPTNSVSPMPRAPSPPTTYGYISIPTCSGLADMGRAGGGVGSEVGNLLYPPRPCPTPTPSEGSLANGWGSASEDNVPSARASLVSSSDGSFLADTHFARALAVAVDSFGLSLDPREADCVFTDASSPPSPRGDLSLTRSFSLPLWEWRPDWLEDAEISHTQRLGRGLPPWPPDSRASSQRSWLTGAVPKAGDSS

B1: mouse Unc5B (receptor)
chain: not shown
notes: whole, on cells; Endogenous protein; also called Uncoordinated 5B
binding result (Netrin-1): binds
binding result (Robo4): binds
